Data reported in the supplement of paper PMC3334620.
In all, about 33,000 sequences were measured (“E-score (-0.5 to 0.5)”: median about -0.012, highest 2% from about 0.27 on). Some of the results follow.

biological target: T1, Vhr1 (UniProt P40522); experiment: PBM E-score (8-mer binding enrichment) (E-score (-0.5 to 0.5)); higher = stronger / more preferred TF binding; most listed sequences are background and not binding sites; conditions: protein concentration: 200 nM; construct: GST-full length
T1 sequence: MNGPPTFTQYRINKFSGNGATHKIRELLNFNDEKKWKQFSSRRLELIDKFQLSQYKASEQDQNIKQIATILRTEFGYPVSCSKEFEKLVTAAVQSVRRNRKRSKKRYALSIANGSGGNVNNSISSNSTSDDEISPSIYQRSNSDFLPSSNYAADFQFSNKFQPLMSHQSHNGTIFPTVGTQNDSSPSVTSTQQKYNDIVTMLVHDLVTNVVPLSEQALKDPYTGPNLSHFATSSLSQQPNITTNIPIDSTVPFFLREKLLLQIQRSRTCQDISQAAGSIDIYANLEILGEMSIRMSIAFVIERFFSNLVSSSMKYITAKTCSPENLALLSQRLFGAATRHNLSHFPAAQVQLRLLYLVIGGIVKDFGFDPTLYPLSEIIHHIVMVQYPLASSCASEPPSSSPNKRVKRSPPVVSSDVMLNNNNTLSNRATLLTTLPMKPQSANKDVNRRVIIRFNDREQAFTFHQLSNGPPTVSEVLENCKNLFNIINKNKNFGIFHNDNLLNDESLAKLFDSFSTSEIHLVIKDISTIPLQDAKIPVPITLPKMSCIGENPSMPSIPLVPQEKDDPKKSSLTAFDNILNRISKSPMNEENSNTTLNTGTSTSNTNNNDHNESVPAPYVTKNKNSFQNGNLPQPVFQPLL
Procedure: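 Universal 'all 10-mer' protein binding microarrays (Agilent AMADID 015681) probed with GST-tagged S. cerevisiae TFs (full-length or DBD) made by in vitro transcription/translation (PURExpress), about 100-200 nM. Bound TF was detected with fluorescent anti-GST. Each ungapped 8-mer (which stands for itself and its reverse complement) is scored by the PBM enrichment score (E-score), a modified Wilcoxon-Mann-Whitney statistic from -0.5 to +0.5, computed with the Universal PBM Analysis Suite. Scale: above 0.35 generally sequence-specific binding.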

| Sequence | PBM E-score |
| --- | --- |
| AGTTAGAT | -0.0498 |
| ATCACCGC | 0.174 |
| ACCGAGCA | 0.0457 |
| ACTCGCCA | 0.158 |
| GGAATGCA | 0.0844 |
| ACTAGAAC | -0.0635 |
| ACTTGCCA | -0.00202 |
| CTCATAGC | -0.0816 |
| AGGGGGAT | -0.258 |
| GAATTTTA | -0.206 |
| ATGTGAGG | 0.0176 |
| CCACAGAA | 0.0862 |
| GAAAACGC | -0.262 |
| ATTGGGTA | -0.0824 |
| AATCGCAC | -0.0344 |
| AACACGAT | 0.19 |
| ATTTATTC | -0.0505 |
| GGTACATA | 0.156 |
| GATCGATA | 0.136 |
| ACGTAATA | 0.128 |
| GGCCCTTA | -0.148 |
| ATTATAGA | -0.198 |
| CACTTAGG | -0.0835 |
| CGGTTACG | -0.157 |
| CTCTTCGC | -0.108 |

| Sequence | PBM E-score |
| --- | --- |
| CAGGGGAG | 0.0828 |
| AGGGTTCC | -0.0923 |
| CCGGCGAC | 0.126 |
| ACAATAAC | 0.119 |
| GCAACTCA | 0.0782 |
| CTACCCAG | 0.0256 |
| CCGCATCC | 0.00835 |
| TAGCCTGA | 0.0109 |
| CTGAAGCA | -0.103 |
| ACAAAAGG | -0.167 |
| GGAGACTA | 0.164 |
| ATTTCATG | -0.037 |
| GATATGGC | 0.0432 |
| CCGGGAGG | 0.021 |
| CGAAATGA | 0.19 |
| CAGAAGGC | -0.0707 |
| CTGTTGGA | -0.096 |
| AGACAGAA | -0.126 |
| ATTGAGTA | 0.308 |
| GGAAGAGA | -0.0859 |
| CCGCCAGC | 0.163 |
| GAACGTCA | -0.224 |
| CGGTATTA | 0.155 |
| ACAGATGG | -0.139 |
| AGGATGAC | 0.112 |

| Sequence | PBM E-score |
| --- | --- |
| ATGGTCGA | -0.0168 |
| ACACGTGT | 0.254 |
| AGAGTCAT | 0.45 |
| GCGCGTTA | -0.123 |
| AGCGTCAA | -0.0226 |
| ATTGACGC | -0.0961 |
| ACTTCGAA | -0.243 |
| ACCCCCAC | -0.225 |
| TAAGGGGA | -0.255 |
| ATAACAAT | 0.119 |
| ATCATCGG | 0.212 |
| AAGGACCA | -0.0869 |
| ATATCGCA | 0.0551 |
| AGCGGGAT | 0.07 |
| CAGTATCC | 0.124 |
| CGGATAAC | 0.0761 |
| GAACCGAC | 0.201 |
| GGGCGCAC | -0.274 |
| CTCCCTAC | -0.062 |
| CGTGGTCA | 0.19 |
| ATAAAATG | -0.0717 |
| AATATTAC | -0.0418 |
| ACTCTGGC | 0.164 |
| CAGTCCTA | 0.00457 |
| CAGCGATG | 0.0814 |

| Sequence | PBM E-score |
| --- | --- |
| GAGCCAAC | -0.0688 |
| GAGTTGAC | 0.0177 |
| ACCGGACT | -0.0358 |
| AACTAGGC | -0.00957 |
| CGCTTCCG | -0.185 |
| AGTTCCCG | -0.121 |
| AGCAAGAA | -0.0163 |
| GGGTTTGA | -0.0336 |
| ATTTCGGA | -0.0873 |
| GTGTGTCA | 0.248 |
| GGACACGA | -0.0165 |
| CATCAGAA | -0.0535 |
| GAAACCCC | -0.0639 |
| AGGGCTGC | -0.0649 |
| TACACTAA | 0.0501 |
| ACATCACG | -0.0572 |
| ACCGCCCC | 0.325 |
| ATGAGATG | 0.106 |
| CCCCGCTC | 0.0661 |
| ACGGTCCA | -0.00757 |
| CGATCAAC | -0.176 |
| GCTATATA | 0.0669 |
| GTCTGCAC | -0.11 |
| AGCTTAAG | -0.122 |
| AAAGAGCC | -0.178 |

| Sequence | PBM E-score |
| --- | --- |
| ATGGCCTG | 0.0769 |
| CTTTGCTC | -0.0277 |
| TAGCTGAA | -0.124 |
| CCGTCCGA | -0.222 |
| ACACGTCC | -0.199 |
| CATTGACG | 0.0587 |
| CCGTAGCA | -0.122 |
| GAACGAAA | -0.182 |
| AGGTTAAC | -0.0375 |
| CCAGTGGG | 0.0379 |
| GGTACTTA | -0.103 |
| ACCTTTGC | -0.148 |
| ATAGAGTC | 0.11 |
| AAATCGCT | -0.326 |
| CAGTAGCC | -0.208 |
| AAGATCGC | -0.25 |
| CCGGGAAG | -0.0387 |
| AGAGTATG | -0.175 |
| CGATACAG | 0.00744 |
| CCAATTTC | -0.182 |
| CGACAACG | -0.106 |
| AACTGCGG | -0.0815 |
| ATTAACGA | 0.158 |
| AATAGAGG | -0.155 |
| CCGCCGAG | -0.0293 |

| Sequence | PBM E-score |
| --- | --- |
| ATCTTACG | 0.0722 |
| AAGTTTGG | -0.0987 |
| CTGGAGGC | 0.0635 |
| AGTTTATC | 0.08 |
| CTTTGCCA | -0.17 |
| ATTGCGGC | -0.0266 |
| ATTATCTG | -0.0192 |
| ACCGCAAA | 0.107 |
| ATTCGGGA | -0.0406 |
| CCATCGTA | -0.013 |
| CCCGGGAA | -0.0284 |
| AATTCTTA | -0.2 |
| GACAGACA | 0.294 |
| AACATGTC | -0.0462 |
| CATCGGCA | 0.0451 |
| CATCTTGG | -0.0375 |
| AGTGATAT | 0.0744 |
| CGAAGTAC | 0.0627 |
| GAAGGGGC | -0.281 |
| TGAGAACA | 0.115 |
| GGATTACA | -0.0213 |
| ACACACAC | 0.316 |
| CGAGAATA | 0.0924 |
| ACTTATAG | -0.0878 |
| AAGCGAGT | 0.152 |

| Sequence | PBM E-score |
| --- | --- |
| ATTAAAAG | -0.0882 |
| ATAAAGAC | -0.0597 |
| ATCCGCTC | 0.0753 |
| AAACGCGA | -0.149 |
| GTCGCGTA | 0.148 |
| ATCGCCAT | 0.0743 |
| AGGTGCAA | -0.103 |
| GTCGAGAA | -0.014 |
| GGAAATCA | 0.085 |
| CCCCAAAG | -0.0224 |
| ATGGACAG | -0.0202 |
| ATATCTCC | 0.213 |
| GTGAAGAA | -0.0671 |
| AGACCAAT | -0.0769 |
| AGGGCGGG | 0.251 |
| TACTTGAA | -0.162 |
| GCAGTACA | 0.00185 |
| CAACGAAG | -0.181 |
| AGCGTACT | -0.0306 |
| AAGGCCAG | -0.0252 |
| CTACCAAG | -0.0191 |
| ATATGTTG | 0.00893 |
